These results are taken from the supplement of paper PMC12355420.

What all share (conditions): 50 µM; 24 h
The subject of assay [1] is HeLa VPS33A reporter cells. Description: relative cell viability (CellMask signal) vs DMSO (fraction of DMSO); higher = less cytotoxic.
In assay [2] the test system is HeLa VPS33A R498W KI + HA-SDC1-FLAG. Description: relative GAG core protein HA-SDC1 amount per cell number vs DMSO (fraction of DMSO); higher = more SDC1 (GAG core protein).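 Also: HA-SDC1 level read out by In-Cell Western staining with an anti-HA antibody against the N-terminal tag, screening FDA-approved library drugs.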
Assay [3] relates to HeLa VPS33A KO + NLuc-VPS33A R498W. Nature of the assay: relative mutant VPS33A R498W amount (NanoLuc luminescence) vs DMSO (fraction of DMSO); HeLa model of a glycosaminoglycan (GAG) storage disease; KI is knock-in and KO knock-out; SDC1 is syndecan 1; higher = higher mutant VPS33A level.

Counter-ions that a name gives are not always drawn. The list shows a part of the results. Rule as the data show it: active = 0.5 or less and inactive = the rest. Many values rest on one well or one pass, so single values are uncertain.
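For relative cell viability (CellMask signal) vs DMSO in this document: primary screen of an FDA-approved drug library in HeLa reporter cells in 96-well format, CellMask signal normalized to DMSO-treated wells set as 1, under 0.5 deemed highly cytotoxic.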
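For relative mutant VPS33A R498W amount (NanoLuc luminescence) vs DMSO in this document: screen of an FDA-approved drug library, NanoLuc luminescence read after lysing the treated cells, taken as a measure of mutant VPS33A protein stability.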

Compound `O=C(O)c1cccnc1` [Nicotinic Acid] showed a relative cell viability in assay [1] of 0.972. Also, the “relative GAG core protein HA-SDC1 amount per cell number” value in assay [2] is inactive: 0.994. In addition, the “relative mutant VPS33A R498W amount” value in assay [3] is 1.37.
On to `CC(C)c1c(C(=O)Nc2ccccc2)c(-c2ccccc2)c(-c2ccc(F)cc2)n1CC[C@@H](O)C[C@@H](O)CC(=O)O` [Atorvastatin Calcium], for which, in assay [1], the relative cell viability is 0.562. The “relative GAG core protein HA-SDC1 amount per cell number” value in assay [2] was inactive: 0.511. Also, the “relative mutant VPS33A R498W amount” value in assay [3] was 1.58.
As for `Cc1ncc([N+](=O)[O-])n1CC(C)O` (stereo not given) [Secnidazole], the relative cell viability in assay [1] is 0.968. Besides, in assay [2], the “relative GAG core protein HA-SDC1 amount per cell number” value is inactive: 0.806. Besides, the “relative mutant VPS33A R498W amount” value in assay [3] is 1.25.
In the same order, the values of `C[C@]12CC[C@@H]3c4ccc(O)cc4C[C@@H](CCCCCCCCC[S+]([O-])CCCC(F)(F)C(F)(F)F)[C@H]3[C@@H]1CC[C@@H]2O` (stereo not given in full) [Fulvestrant] are 1.04, inactive: 1.12 and 0.935.
`Nc1ccn([C@H]2CC[C@@H](CO)O2)c(=O)n1` [Zalcitabine] displayed a relative cell viability in assay [1] of 1.05. In assay [2], the “relative GAG core protein HA-SDC1 amount per cell number” value was inactive: 0.868. In addition, the “relative mutant VPS33A R498W amount” value in assay [3] amounted to 1.37.
Compound `C[N+]1(C)CCC(OC(=O)C(O)(c2ccccc2)C2CCCC2)C1` (stereo not given) [Glycopyrrolate] displayed a relative cell viability in assay [1] of 1.27. Moreover, the “relative GAG core protein HA-SDC1 amount per cell number” value in assay [2] was inactive: 1.43. In assay [3], the “relative mutant VPS33A R498W amount” value is 0.932.
Take `CC(=O)O[C@]1(C(C)=O)CC[C@H]2[C@@H]3C=C(C)C4=CC(=O)CC[C@]4(C)[C@H]3CC[C@@]21C` [Megestrol Acetate]: the relative cell viability in assay [1] came out at 1.14. Further, the “relative GAG core protein HA-SDC1 amount per cell number” value in assay [2] was inactive: 1.25. For the same compound, the “relative mutant VPS33A R498W amount” value in assay [3] was 1.36.
In the same order, the values of `COc1ccc2[nH]cc(CCNC(C)=O)c2c1` [Melatonin] are 1.19, inactive: 1.24 and 1.66.
In the same order, the values of `CCN(CC)C(=O)C1(c2ccccc2)CC1CN` (stereo not given) [Milnacipran HCl] are 0.94, inactive: 0.988 and 1.46.
Take `CNC(=O)[C@@H](NC(=O)[C@H](CC(C)C)[C@H](O)C(=O)NO)C(C)(C)C` [Marimastat]: in assay [1], the relative cell viability was 1.01. Further, the “relative GAG core protein HA-SDC1 amount per cell number” value in assay [2] was inactive: 0.549. Moreover, the “relative mutant VPS33A R498W amount” value in assay [3] is 0.459.
